# Source: PubChem BioAssay AID1347120 (National Center for Advancing Translational Sciences (NCATS), 2019)
# In all, about 390,000 compounds went through this assay and about 930 (0.24%) were called active. The inconclusive results got no clear call from the source; some entries with a clear call stand among them for comparison. Calls come from the whole dose curve; as a rule, active = well fitted activation curve with a large enough effect; inconclusive = small, poorly fitted or top-dose-only effect; inactive = no such curve, though single readings can be large or run the other way. A potency beside an inconclusive call is a rough fit, not a confirmed value.
# Experiment: qHTS for Suppressors of FUS Proteinopathy: Primary screen using FUS-linked yeast assay; note: nearly all actives have a fitted effect of over 55% in size;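 for growth rescue (activation): plate controls were DMSO vehicle for no effect and reference control for full effect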
# Conditions: S. cerevisiae FUS-expressing, OD600, 24 h; Potency: growth rescue; growth rescue (activation): at 76.6 µM (top of the series)
# In short: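 Toxicity suppression screen in FUS-yeast. Cells induced with 2% galactose, starting OD 0.005, treated 24hr at 30C with compounds at multiple final concentrations; growth by OD600.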
# Potency is the fitted concentration of half-maximal effect; tags give direction and shape of the fitted curve.
SMILES,Potency,growth rescue (activation)
O=C(OCC(=O)N1CCN(C(=O)c2ccco2)CC1)c1ccccc1Cc1ccccc1,"inconclusive: 25.1 µM [activator, partial curve, poor fit]",
CC(C)C[C@H](NC(=O)c1[nH]cnc1C(=O)N[C@@H](Cc1ccccc1)C(=O)OCc1ccccc1)C(=O)OCc1ccccc1,"inconclusive: 25.1 µM [activator, single point]",
Cc1cc(C)cc(N(CC(=O)Nc2ccc(C)cc2Cl)S(=O)(=O)c2c(C)[nH]c(=O)[nH]c2=O)c1,"inconclusive: 44.7 µM [activator, partial curve, poor fit]",
CCN(CC)C(=O)CN(Cc1ccccc1)S(=O)(=O)c1ccc(F)cc1,"inconclusive: 22.4 µM [activator, partial curve]",
CCC(NC(=O)Cc1c(C)c2ccc(OC)c(C)c2oc1=O)C(=O)NC(Cc1ccc(Cl)cc1)C(=O)O (stereo unspecified),"inconclusive: 31.6 µM [activator, single point]",
O=C(Nc1ccccc1)N1CCc2scc[n+]2-c2ccccc21,"inconclusive: 25.1 µM [activator, single point]",
COc1ccc(OC)c(CCNC(=O)c2cc3cccc4c3n2CCS4)c1,"inconclusive: 39.8 µM [activator, single point]",
COc1ccc(C2=CC(c3ccc(OC)c(OC)c3)n3nnnc3N2)c(OC)c1 (stereo unspecified),"inconclusive: 25.1 µM [activator, single point]",
CCOC(=O)c1c(C)oc2ccc(N(C(=O)c3ccncc3)S(=O)(=O)c3ccc(F)cc3)cc12,"inconclusive: 35.5 µM [activator, single point]",
COC(=O)[C@]12CCCCC=C1N(Cc1ccc3c(c1)OCO3)C(=O)[C@H](CC(=O)NCC1CCCCC1)C2,"inconclusive: 11.2 µM [activator, partial curve, poor fit]",
CCN(Cc1ccccc1)C(=O)CCS(=O)(=O)c1cc(Br)cc2c1N(C(=O)C1CC1)CC2,"inconclusive: 35.5 µM [activator, single point]",
O=C(CCCCCBr)N1CCC(CC2CC(c3ccc(Cl)cc3)=NO2)(C(=O)NCC2CCCCC2)CC1 (stereo unspecified),,inactive: 12.5%
O=C(CSc1nnc(NC(=O)c2ccc3c(c2)OCO3)s1)NCc1ccco1,,inactive: 25.7%
CCN(CC)C(=O)c1sc2c(c1C)c(=O)n(Cc1ccccc1)c(=O)n2CC(=O)Nc1ccc(OC)cc1,"inconclusive: 25.1 µM [activator, single point]",
CCc1nc2c(OCc3ccc(C(F)(F)F)cc3)cccn2c1N(C)C(=O)c1ccc(C)cc1,"inconclusive: 31.6 µM [activator, single point]",
CCOC(=O)C1=C(c2ccccc2)NC(=S)NC1c1cc([N+](=O)[O-])ccc1OC (stereo unspecified),"inconclusive: 12.6 µM [activator, partial curve, poor fit]",
C=CCOc1cccc(C2C(C(=O)c3ccco3)=C(O)C(=O)N2Cc2ccco2)c1 (stereo unspecified),"inconclusive: 44.7 µM [activator, partial curve, poor fit]",
COc1ccc(-n2ncc(C(=O)NCc3ccc4c(c3)OCO4)c2C2CCN(C(=O)OC(C)(C)C)CC2)cc1,active: 31.6 µM,
Cc1nc2scc(C)n2c(=O)c1S(=O)(=O)Nc1ccc(F)cc1,,inactive: -8.5%
CC(NC(=O)COC(=O)C1=NN(c2ccccc2)C(=O)CC1)c1ccccc1 (stereo unspecified),,inactive: 1.11%
CCCCN1CCS(=O)(=O)N(Cc2ccccc2Br)CC(C(=O)OC)C1 (stereo unspecified),,inactive: 15.1%

SMILES,Potency,growth rescue (activation)
COC(=O)[C@@]12CCCN1[C@H](c1ccc(-c3cccc(Cl)c3)c(OC)c1)[C@H]1C(=O)N(C)C(=O)[C@H]12,"inconclusive: 20 µM [activator, partial curve, poor fit]",
COc1ccc(-c2cn3nc(SCC(=O)Nc4ccccc4F)ccc3n2)cc1,,inactive: -12.3%
Cc1ccc(-c2cc(C)nc3ncnn23)cc1,,inactive: -3.07%
COC(=O)c1ccc(Sc2ccccc2NS(=O)(=O)c2ccc(C)cc2)nc1,"inconclusive: 39.8 µM [activator, partial curve, poor fit]",
O=C(Nc1cccnc1Cl)c1ccc(=O)oc1,"inconclusive: 50.1 µM [activator, partial curve, poor fit]",
CCC(C)(C)c1ccc(OCCCC[n+]2ccc(C)cc2)c(C(C)(C)CC)c1,"inconclusive: 50.1 µM [activator, single point]",
O=C(NCc1ccccc1)c1cccc(N2CCCS2(=O)=O)c1,,inactive: 15.2%
Cc1cscc1-c1ccc(C(=O)Nc2c(C)cccc2C)o1,,inactive: 24.2%
CCOC(=O)c1cc2c(=O)n3ccccc3nc2n(Cc2ccco2)c1=NC(=O)c1ccc(OC)cc1,"inconclusive: 31.6 µM [activator, single point]",
CCCCNC(=O)c1cnn2c(C)c(Cc3c(C)cc(C)cc3C)c(C)nc12,"inconclusive: 10 µM [activator, partial curve, poor fit]",
Cc1cccc(-n2cnc3c(c2=O)c2nc4ccccc4nc2n3Cc2ccco2)c1,,inactive: 14.6%
COCc1cn([C@H]2C[C@@H]3O[C@H](CO)CC[C@@H]3O[C@@H]2CCc2ccc(-c3ccc(OC)cc3)cc2)nn1,"inconclusive: 22.4 µM [activator, single point]",
CCc1cccc(C)c1NS(=O)(=O)c1ccc2c(c1)NC(=O)C(C)C(=O)N2 (stereo unspecified),,inactive: -0.931%
Cc1nc2sc(C(c3ccco3)N3CCN(C(c4ccccc4)c4ccccc4)CC3)c(O)n2n1 (stereo unspecified),"inconclusive: 25.1 µM [activator, single point]",
COC(=O)[C@@]12C[C@@H](CC(=O)NCCc3ccccc3OC)C(=O)N(CCc3ccc(OC)c(OC)c3)C1=CCC(C)(C)C2,"inconclusive: 7.08 µM [activator, partial curve]",
COc1ccc(NCc2nnc(SCC(=O)Nc3cccc(C)c3)o2)cc1,"inconclusive: 35.5 µM [activator, single point]",
COc1cccc(CNc2nc3cc(-c4csc5ccccc45)sc3c(=O)n2C)c1,"inconclusive: 44.7 µM [activator, single point]",
CCCC1CCC2(CCCN2CCOC(=S)Nc2ccccc2)CC1 (stereo unspecified),,inactive: 15%
Cc1nc2ccc(S(=O)(=O)NCC(=O)N3CCC(C)CC3)cc2s1,"inconclusive: 11.2 µM [activator, partial curve, poor fit]",
CCN1C(=O)[C@@H]2[C@@H](c3ccc(SC4CCCCC4)cc3)N3CCCC[C@@]3(C(=O)OC)[C@@H]2C1=O,"inconclusive: 17.8 µM [activator, partial curve, poor fit]",
CCCOc1ccc(F)cc1-c1cc(C(=O)Nc2ccc(OC)c(OC)c2)[nH]n1,"inconclusive: 31.6 µM [activator, partial curve, poor fit]",

SMILES,Potency,growth rescue (activation)
COc1cccc(CN2C(=O)[C@@H]3Cc4c([nH]c5ccccc45)C(C)(C)N3C2=O)c1,"inconclusive: 31.6 µM [activator, single point]",
CCn1cc(C(=O)NCC(OC)OC)c(=O)c2cc(S(=O)(=O)N(C)C3CCCCC3)ccc21,"inconclusive: 22.4 µM [activator, partial curve]",
CCOC(=O)N1CCN(C(=O)C[C@@H]2C[C@@]3(C(=O)OC)CC(C)(C)CC=C3N(Cc3ccccc3)C2=O)CC1,"inconclusive: 15.8 µM [activator, single point]",
Cc1ccc(CNS(=O)(=O)c2ccc(Br)s2)cc1,,inactive: -8.12%
CCOC1=C/C(=C/c2c(N)n3nc(-c4ccccc4)sc3nc2=O)C=CC1=O,"inconclusive: 28.2 µM [activator, partial curve, poor fit]",
COc1ccc2cc1Oc1ccc(cc1)C[C@H]1c3cc(c(OC)cc3CCN1C)Oc1c(OC)c(OC)cc3c1[C@@H](C2)N(C)CC3,"inconclusive: 25.1 µM [activator, single point]",
CC(C)CNS(=O)(=O)c1cc(C(=O)OC2CCOC2=O)c(Cl)cc1Cl (stereo unspecified),,inactive: -16.1%
CSCCC1NC2(C(=O)Nc3c2ccc(Cl)c3C)[C@@H]2C(=O)N(C3CCCC3)C(=O)[C@H]12 (stereo partly specified),"inconclusive: 39.8 µM [activator, single point]",
O=C(O)Cc1ccc(NC(=S)Nc2cccc(Cl)c2Cl)cc1,"inconclusive: 8.91 µM [activator, single point]",
CCOC(=O)c1c(-c2ccccc2)oc2ccc(NS(=O)(=O)c3ccc(C)cc3C)cc12,,inactive: 43.4%
O=C(NCCc1ccccc1F)c1cc2ccccn2n1,,inactive: -15.6%
CCc1ccc(NC(=O)CCc2ccc(C)o2)cc1,,inactive: -17.8%
O=C(CSc1nc2cc(Cl)ccc2s1)NC(=O)NCc1ccco1,"inconclusive: 35.5 µM [activator, partial curve, poor fit]",
CCc1ccc(CN(Cc2cn[nH]c2-c2ccc(OC)cc2)C(=O)Nc2ccc(C)c(F)c2)cc1,"inconclusive: 50.1 µM [activator, single point]",
Cc1cccc(N2CCN(C(=O)c3ccc(CS(=O)Cc4ccc(Cl)cc4)o3)CC2)c1C (stereo unspecified),"inconclusive: 31.6 µM [activator, single point]",
COc1cc(/C=N/NC(=O)c2cc(-c3cccs3)nc3ccccc23)ccc1O,"inconclusive: 28.2 µM [activator, single point]",
COc1cc(/C=C/C(=O)OCC(=O)Nc2ccc(NC(C)=O)cc2)cc(S(=O)(=O)N2CCc3ccccc32)c1OC,"inconclusive: 39.8 µM [activator, single point]",
Cc1n[nH]c(C)c1CCOc1ccc(C(C)C)cc1,"inconclusive: 50.1 µM [activator, single point]",
CCCCCCN1C[C@H](n2cc(-c3ccc(F)cc3)nn2)[C@@H](O)C[C@@H]1c1ccc(C)cc1,"inconclusive: 20 µM [activator, single point]",
